From publication PMC6919601, “Identification of Plasmodium dipeptidyl aminopeptidase allosteric inhibitors by high throughput screening” (PLoS ONE, 2019)
The whole screen tested about 110,000 compounds, of which about 230 (0.21%) showed an effect of 50% or more. This is one part of the list.

Molecular target: DPAP1 (Plasmodium falciparum, UniProt Q8IIJ9)
Test: primary screen, percent inhibition; read by cleavage of a fluorogenic dipeptide substrate; higher = more effect of the substance
Design: species or system P. falciparum D10 trophozoite lysates; single well
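Further: 30 min substrate incubation versus DMSO and 10 µM JCP410 controls.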

Chain of DPAP1 (Q8IIJ9 whole entry, looked up): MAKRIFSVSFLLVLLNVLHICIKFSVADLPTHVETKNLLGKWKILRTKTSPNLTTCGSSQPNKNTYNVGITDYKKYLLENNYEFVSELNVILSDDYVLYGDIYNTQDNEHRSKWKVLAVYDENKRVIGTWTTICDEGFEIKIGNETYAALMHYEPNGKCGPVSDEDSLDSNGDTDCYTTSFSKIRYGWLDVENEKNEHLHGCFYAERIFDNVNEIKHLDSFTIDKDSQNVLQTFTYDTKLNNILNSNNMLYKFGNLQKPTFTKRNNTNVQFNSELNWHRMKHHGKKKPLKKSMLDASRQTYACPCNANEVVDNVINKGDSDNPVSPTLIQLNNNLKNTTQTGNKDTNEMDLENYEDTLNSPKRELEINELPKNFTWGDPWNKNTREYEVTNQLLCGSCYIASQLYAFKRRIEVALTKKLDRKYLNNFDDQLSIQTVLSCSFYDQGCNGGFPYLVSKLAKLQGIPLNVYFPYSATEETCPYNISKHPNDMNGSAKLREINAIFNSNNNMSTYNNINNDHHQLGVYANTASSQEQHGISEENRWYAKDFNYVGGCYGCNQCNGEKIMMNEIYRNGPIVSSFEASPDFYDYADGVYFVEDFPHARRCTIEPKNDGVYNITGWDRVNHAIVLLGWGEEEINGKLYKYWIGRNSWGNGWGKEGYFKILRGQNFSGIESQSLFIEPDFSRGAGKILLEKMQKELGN

Structure (SMILES)	% Inhibition @ 10 uM
CC1CCN(c2ccc3nnc(CCC(=O)NCC4CCCO4)n3n2)CC1 (centres unmarked)	-4.32%
CCN(CC)c1ccc(NC(=O)C2CCCCC2)c(C)c1	1.17%
CC(C)N1C(=O)S/C(=C/c2ccc3c(c2)n(C)c(=O)n3C)C1=O	-1.61%
COc1ccc(CNC(=O)c2ccc3oc(=O)c(S(=O)(=O)c4ccc(F)cc4)cc3c2)cc1	-1.3%
CCc1nc(S(C)(=O)=O)c(C#N)cc1C	-0.143%
CC(C)C(=O)NCCN1CCOCC1	1.83%
CCOC(=O)Nc1ccc2c(c1)Nc1ccccc1C=C2	-0.736%
CCOC1=CC(=O)N(Cc2ccccc2)C1	-5.31%
CCOc1ccc(CN(CCO)CCO)cc1C(=O)OC	-10.9%
COc1ccc(OC)c(CNS(=O)(=O)c2c(C)nc3scc(C)n3c2=O)c1	-1.27%
O=S(=O)(c1ccc(Br)cc1)N1CCN(S(=O)(=O)c2ccc3ccccc3c2)CC1	6.79%
CCOC(=O)c1c(N)c(C#N)c(C)n1-c1ccc(Cl)cc1	-7.99%
CC1=C(c2ccc(C)cc2)S(=O)(=O)N=C1N1CCC(C)CC1	5.42%
CC(=O)c1cn(CCCCn2cc(C(C)=O)c(=O)[nH]c2=O)c(=O)[nH]c1=O	-0.641%
CN(C)CCCn1nnc2c(=O)oc3ccccc3c21	-2.42%
O=C(Cn1c(=O)sc2ccccc21)NC1CCCCC1	1.87%
CCc1ccc(Oc2nc3ccccn3c(=O)c2/C=C(\C#N)C(=O)OC)cc1	11%
O=C1CSC(c2ccc(Cl)cc2)N1c1ccccc1 (centres unmarked)	-5.31%
CCn1ncc(C2=NOC(C(=O)NCC(C)C)C2)c1C (centres unmarked)	-4.85%
CC(=O)N1CCN(Cc2ccc(Br)s2)CC1	-0.446%
CCN(CC)CCN(CC)CCc1ccccc1	0.217%
CCOC(=O)C1=C(C)N=c2s/c(=C\c3ccc(C(C)C)cc3)c(=O)n2C1c1ccccc1 (centres unmarked)	-3.14%

Structure (SMILES)	% Inhibition @ 10 uM
CCC(=O)N1c2ccccc2N=C2CC(c3ccco3)CC(O)=C2C1c1ccc(OC)c(OC)c1 (centres unmarked)	2.38%
COc1ccc(-n2nc3c(c2NC(=O)C(C)C)CS(=O)(=O)C3)cc1	-4.65%
COc1cccc(C(=O)Nc2nc(C)c(C(=O)N(C)C)s2)c1	-2.76%
COc1cc(CNCCO)cc(Br)c1OCc1cccs1	-7.99%
O=C(Cn1ncc2c(=O)oc3ccccc3c21)NCC1(c2ccccc2)CCCC1	-1.03%
COc1ccc(C(=O)Nc2ccc(S(=O)(=O)N3CCC(C)CC3)cc2)cc1Br	2.42%
Cc1ccc(C2CC(C(F)(F)F)n3ncc(C(=O)N(C)Cc4cn(C)nc4C)c3N2)cc1 (centres unmarked)	6.52%
O=C1CC(c2ccco2)CC(=O)C1=CNCCN1CCN(C(=O)c2ccccc2)CC1 (centres unmarked)	0.131%
COc1ccc2[nH]cc(CCNc3nn(-c4ccc(F)cc4)nc3C(C)=O)c2c1	-5.33%
CC1CCCCN1C(=O)c1cnn(-c2ccccc2)c1-n1cccc1 (centres unmarked)	3.2%
CCCCCCCc1c(C)nn(-c2nnc3c(n2)[nH]c2ccc(Br)cc23)c1O	4.26%
O=C(CSc1nc2ccccc2o1)c1ccc(Cl)cc1	5.24%
O=C(O)C1C2CCC(O2)C1C(=O)NCc1ccco1 (centres unmarked)	1.87%
CCOc1ccccc1NC(=O)C(C)Oc1ccc(C)cc1 (centres unmarked)	-5.13%
CCn1c(/C=C/c2ccc(F)cc2)nc2ccccc2c1=O	-6.05%
CCN1CCN(C(=O)c2ccc(NS(=O)(=O)c3cc(C)ccc3C)cc2)CC1	-2.85%
Cc1ccc(-c2nc(CS(=O)(=O)CC(=O)N3CCc4ccccc4C3)c(C)o2)cc1	-0.138%
C=CCSc1nc2ccccc2c(=O)n1-c1ccc(OC)cc1	-1.26%
COc1ccc(NC(=O)CN2CCCCC2)cc1	-1.29%
CCOc1cccc2cc(-c3nc(-c4ccccc4)no3)c(=O)oc12	-3.43%
Cc1cc2nc3s/c(=C\c4cccc(Cl)c4Cl)c(=O)n3c2cc1C	3.61%
COc1cccc(OC)c1C(=O)NCC1COc2ccccc2O1 (centres unmarked)	4.35%

Structure (SMILES)	% Inhibition @ 10 uM
Clc1ccc(-c2noc3ncnc(N4CCN(Cc5ccc6c(c5)OCO6)CC4)c23)cc1	-3.95%
O=C(Nc1cccnc1)C1CCCN(c2ncnc3c2nc2n3CCCCC2)C1 (centres unmarked)	0.244%
OC1(c2ccc(Cl)cc2)CCN(Cc2ccc(F)c(Br)c2)CC1	-1.21%
Cn1ccc(/C=C2/CCC/C(=C\c3ccn(C)n3)C2=O)n1	0.64%
Cc1cccc(NC(=O)c2c(C)oc3ncn(C)c(=O)c23)n1	-2.41%
C=CCOc1ccc(C2c3c(oc4cc(C)c(C)cc4c3=O)C(=O)N2CCCN2CCOCC2)cc1 (centres unmarked)	2.31%
Cc1ccc(C)c(CN2CCC(O)C2)c1 (centres unmarked)	-0.0648%
Cc1nc(S)c2c3c(sc2n1)CCCC3	29%
CCCC(=O)Nc1ccc(C(=O)Nc2cc(OC)c(Cl)cc2OC)cc1	-1.44%
COc1ccc(CCN2C(=O)CC(Cc3ccc(C)cc3)C2=O)cc1OC (centres unmarked)	1.68%
O=C(Nc1cccc2cccnc12)c1ccc(Br)o1	1.39%
CCn1cc(C(=O)N2CCN(c3ccccn3)CC2)c2cc(OC)c(OC)cc2c1=O	-7.33%
CCOc1ccc(NC(=O)C(C)Oc2ccccc2C)cc1 (centres unmarked)	0.331%
CCN(CC)c1ccc(NC(=O)COC)cc1	4.06%
N=C(NOC(=O)c1ccccc1Cl)c1ncon1	-2.26%
CC(=O)c1ccc(NC(=O)COc2ccccc2C)cc1	7.66%
CCCCNC(=O)c1ccc(CS(=O)c2ccccc2C)o1 (centres unmarked)	-4.96%
O=C(CN1CCN(Cc2ccc(Cl)cc2)C1=O)NCCCSC1CCCCC1	-6.4%
CCOC(=O)c1c(C)nc(C)c(C(=O)OCC)c1-c1ccccc1Cl	1.57%
N#CC1=C(N)OC2=C(C(=O)CC(c3ccco3)C2)C1c1ccc(F)c(F)c1 (centres unmarked)	-1.06%
Cc1ccc(OCC(=O)Nc2ccc(S(=O)(=O)N3CCN(C)CC3)cc2)c(C)c1	1.83%
